The results in this text go back to article PMC10726135.

Some of the results follow. At the low end of the ranking the order means little. The protein was read in a cell extract, so binding may be indirect.

In this experiment the target is T1, HNF4alpha2 (COS-7 nuclear extract) (UniProt P41235).
T1 sequence: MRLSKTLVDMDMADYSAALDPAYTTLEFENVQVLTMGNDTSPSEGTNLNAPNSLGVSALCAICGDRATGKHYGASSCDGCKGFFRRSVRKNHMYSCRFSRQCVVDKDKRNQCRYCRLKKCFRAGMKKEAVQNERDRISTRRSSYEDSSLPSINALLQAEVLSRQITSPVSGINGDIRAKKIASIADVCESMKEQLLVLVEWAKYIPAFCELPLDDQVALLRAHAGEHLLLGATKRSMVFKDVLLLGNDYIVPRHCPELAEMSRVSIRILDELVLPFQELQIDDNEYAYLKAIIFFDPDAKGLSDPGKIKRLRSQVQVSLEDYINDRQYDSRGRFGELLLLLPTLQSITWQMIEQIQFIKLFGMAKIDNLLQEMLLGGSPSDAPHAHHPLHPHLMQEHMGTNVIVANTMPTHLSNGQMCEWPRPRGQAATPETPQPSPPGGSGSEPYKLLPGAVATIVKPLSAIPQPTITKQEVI
Kind of experiment: protein-binding microarray. The note with it: COS-7 nuclear extract on double-stranded Agilent 4x180k PBM; binding buffer, salt, pH and temperature not given; high values mean tight binding; double strand, one strand shown; sequences stand for … in …GCCTAGGGAGATTAGAGTATCGGTCGA
In the case of CAAAGGACATTTCTAAAAATAGCCTTACTT, the binding signal (log2 normalized intensity) was -0.901.

On to TGACCTCTTGGAAACATTTTACTCACCCCT, for which the binding signal (log2 normalized intensity) is 2.82.

With CTCTGGGAGATAAAGCAGAGGGCTGCTTGC, the binding signal (log2 normalized intensity) was -1.15.

As to CTTGGTGAGAGATTAAACATGCTCTGCATA, the binding signal (log2 normalized intensity) was -1.24.

With AGAGCACTAAATCTCTCCTAGAGAAAGGGG, the binding signal (log2 normalized intensity) is -1.09.

As for GTAGAAATTGTGGCTTGTGTAGTTATCCAG, the binding signal (log2 normalized intensity) worked out at 0.927.

Take CTGAGGATCTAATGCACCCAGAACCCCCAG: the binding signal (log2 normalized intensity) is 4.71.

With TGGTAGCGTGTAGTAAAGCTCATGAAGCTT, the binding signal (log2 normalized intensity) was -0.0448.

Turning to CTATCAGTCTGGGTCCAGTCAGGGAAATGG, the binding signal (log2 normalized intensity) was found to be 0.422.

Take GCAGAGTGGGAGGCCAAGAGATAAAAGAGA: the binding signal (log2 normalized intensity) was -1.15.

On to GGGCTGTGAGAAACATCCTGCCTAACCACC, for which the binding signal (log2 normalized intensity) was -1.19.

For CCACAAGCCAAGGAGAGAGGCCTCTAGATA, the binding signal (log2 normalized intensity) was -1.06.

For GGTGGAGATGCCGTCGGCACACACGCATGG, the binding signal (log2 normalized intensity) was -0.836.

As to GGGCATGGACTTTGGAATTAAGGAGATTTG, the binding signal (log2 normalized intensity) worked out at 4.96.

Take TATCTTTCCCTCCACTTCCTTTCTTTCCCT: the binding signal (log2 normalized intensity) came to 0.993.

With ATGGCTACCAAGGAGTGGACTGTTCAAGAC, the binding signal (log2 normalized intensity) is -0.242.

For ACCTGGCCAAGTACAGCCTGTGCTAAGTTT, the binding signal (log2 normalized intensity) is -0.802.

As for TAAGTGCACAGCCAGAACTGAGCCCTGGTT, the binding signal (log2 normalized intensity) is -1.15.

As for AGCATTAATCCCTGAGCCTGGACCTTGGAA, the binding signal (log2 normalized intensity) came out at 3.62.

For the sequence GGTGGCCATCCATCCTGGCGACAGCAACTA, the binding signal (log2 normalized intensity) is -1.12.

As for TCCAAAGGCCATCCACATTCTTTGGCTCAG, the binding signal (log2 normalized intensity) was -1.12.

For TTTGTCACCCAGGCTGAAGTCCAGTAGCTC, the binding signal (log2 normalized intensity) was 0.869.

In the case of TGACAGCAAGATAATGTCAAAAATCTTAAG, the binding signal (log2 normalized intensity) was -0.767.

On to GGTGGTGGGGGGTAGCCACTGACAGGAGGT, for which the binding signal (log2 normalized intensity) is -1.2.

In the case of CCACAGAGTGACCTGGTATTGCAAGTATTT, the binding signal (log2 normalized intensity) is 1.1.

Consider AGAGGCTTTAGCAATAAATTCTGTTTTTTC, for which the binding signal (log2 normalized intensity) was -0.965.

Consider CAAGTTGAAGCCATCCTCCCACCTCAGCCT, for which the binding signal (log2 normalized intensity) came to 2.4.

For AGCCGCAGAGCTAATGTTCAAATCCAGACA, the binding signal (log2 normalized intensity) was -1.03.

TATTCAAACAGAGGACAGTTGTGTTTGTTG: the binding signal (log2 normalized intensity) was determined as 1.96.

As to AGTGCTTGTCAGTTTTGTTTTTGATCCCAA, the binding signal (log2 normalized intensity) was determined as 2.3.

In the case of TTGCATCAGCAGAGGACAGAAGAAGGAAAA, the binding signal (log2 normalized intensity) is -1.12.

On to CCCTCTTTAGGGTAGCCTGGGTTAAAGTCC, for which the binding signal (log2 normalized intensity) is 5.5.

GTTCTGTTCCAGTTATGTTCTCTGTACGGA: the binding signal (log2 normalized intensity) turned out to be 1.8.

Consider GCCCTTTTTTTCTCTCCCCTTTTAATACAA, for which the binding signal (log2 normalized intensity) came out at 1.84.

On to ATCAGAGCTGGATGTGAGTTATGACTACTT, for which the binding signal (log2 normalized intensity) is -0.608.

On to CAGCACATGAAGGTCTCCTTGACTTCAAAG, for which the binding signal (log2 normalized intensity) is -1.1.

Regarding CCTGGTGGCCATCAAGCAGATCATCCAGAG, the binding signal (log2 normalized intensity) is -1.01.

With TTCAGCTTCTCTTGTTTGTGTAACTGTGGG, the binding signal (log2 normalized intensity) was 2.04.

On to TTGATATGTTAGTCTTGAGTCCCAAAGTCC, for which the binding signal (log2 normalized intensity) stood at 3.43.

As to TGGTGTTTGATCTGATGTACCCAGCACTGT, the binding signal (log2 normalized intensity) stood at 1.32.

Turning to TGTTTGAGTTCCAAAGTCCATGTTCATAAC, the binding signal (log2 normalized intensity) worked out at 5.11.

As for GAAAAGAATATCTCAGCAGCCTGGCTGCTC, the binding signal (log2 normalized intensity) was -1.08.

Regarding CCTGGCCATTTCTCAGGTTGTGTTTGCAGT, the binding signal (log2 normalized intensity) is 1.53.

Turning to GGGTGGGGTGCTGCCTTTCCTGTGACTTTT, the binding signal (log2 normalized intensity) came out at 1.74.

ACCTGATGACAAAGGTGAGAGAGCATCCAG: the binding signal (log2 normalized intensity) is -1.09.

Take TAAGCAGATCTTTAGAGACAGAAAATGCTT: the binding signal (log2 normalized intensity) was -0.658.

With TAAAGTTTATAGGCTAGAATGGAAACCAAT, the binding signal (log2 normalized intensity) was -1.05.

Regarding TTCTTTGGGGCTTAGATAGCAGTGTGAGTG, the binding signal (log2 normalized intensity) came out at 1.84.

Consider GAAAGGAGGTCATGTACATGAAAGCAAGTT, for which the binding signal (log2 normalized intensity) is 1.22.

With GTCTAGGTGCCAGAATTGCTGCTCCCCCTC, the binding signal (log2 normalized intensity) turned out to be 3.89.

For the sequence TTCCAGCTCAATCAAGGACTGGGCTGGAAC, the binding signal (log2 normalized intensity) is -1.07.

Take GTTTCTGTTTTGATCTTAAGATGATATAGC: the binding signal (log2 normalized intensity) was 1.76.

In the case of TAGGTAAGAGACAAAGGTTGCATTCTTTTG, the binding signal (log2 normalized intensity) came to 1.43.

CACTGTTTGCCATAGATCCCACCATTCCCA: the binding signal (log2 normalized intensity) is 1.4.

Take TATGGGAAGTGGGGTAAGCAAGGCTCTTAG: the binding signal (log2 normalized intensity) was -0.461.

Turning to GGCTAAACCTAGCCCCCTTTCCCTTATCTT, the binding signal (log2 normalized intensity) came out at 2.53.

As to AAATTTGTTTACTTCTGTCTCCAGAAATCA, the binding signal (log2 normalized intensity) was determined as 0.729.

Regarding CCAGGTTCCAAAGGTCACCCGTATTCCTTA, the binding signal (log2 normalized intensity) was determined as 6.63.

AAGGTTCAGAGCCTGGCTGGCCTGGCAAAT: the binding signal (log2 normalized intensity) is -0.816.

Turning to TTGTCAAGTTTGGTAAGCAGACCCCTACTG, the binding signal (log2 normalized intensity) came to 2.36.

For GGATTCTGGGACCCACCCACCTATGTCCTT, the binding signal (log2 normalized intensity) worked out at 2.38.

For ACATTCTTAGACAACACACCACCTGCTACT, the binding signal (log2 normalized intensity) is -1.12.

Take GTGGGGGTCGGGGCACTGGTCCCCTGCACA: the binding signal (log2 normalized intensity) is -0.762.

Take CCACTCTCATGGTCAATATTTTCTTTGTGC: the binding signal (log2 normalized intensity) amounted to 1.63.

On to CAGAAAGTGATGGGCTGGACTAAGAGTAGC, for which the binding signal (log2 normalized intensity) was -1.11.

For AAGGGAGAAATTGCGCTAACCAGATGGTAG, the binding signal (log2 normalized intensity) was -1.08.

Take CATTAGACAGAAACCAAGCTGTCCGACTGC: the binding signal (log2 normalized intensity) is -0.865.

ACCCTTTGAGTCCTTCATGGCTACCCTTCA: the binding signal (log2 normalized intensity) stood at 0.859.

With GTTGTGGAATGTGCTTGGACCTGCTCTGTT, the binding signal (log2 normalized intensity) was 2.

Take GTTCCGTGTTCCAGAGCCTCCAAAGTCCGC: the binding signal (log2 normalized intensity) worked out at 2.22.

TGGTTTCTGTTTGAGGGGAAGAGAGTATGG: the binding signal (log2 normalized intensity) is 1.37.

In the case of TATCTTCTTTCAGTGTTGACCTTTGAACAT, the binding signal (log2 normalized intensity) turned out to be 8.83.
